Among all 310,000 compounds or so, about 2,200 (0.71%) showed an effect of 50% or more. The effect is printed as a negative number. The list shows a part of the results.
target: human ether-à-go-go-related gene (hERG) potassium channel (human, UniProt Q12809); assay: primary screen, population patch clamp on CHO cells stably expressing hERG
Sequence (Q12809 whole entry, looked up): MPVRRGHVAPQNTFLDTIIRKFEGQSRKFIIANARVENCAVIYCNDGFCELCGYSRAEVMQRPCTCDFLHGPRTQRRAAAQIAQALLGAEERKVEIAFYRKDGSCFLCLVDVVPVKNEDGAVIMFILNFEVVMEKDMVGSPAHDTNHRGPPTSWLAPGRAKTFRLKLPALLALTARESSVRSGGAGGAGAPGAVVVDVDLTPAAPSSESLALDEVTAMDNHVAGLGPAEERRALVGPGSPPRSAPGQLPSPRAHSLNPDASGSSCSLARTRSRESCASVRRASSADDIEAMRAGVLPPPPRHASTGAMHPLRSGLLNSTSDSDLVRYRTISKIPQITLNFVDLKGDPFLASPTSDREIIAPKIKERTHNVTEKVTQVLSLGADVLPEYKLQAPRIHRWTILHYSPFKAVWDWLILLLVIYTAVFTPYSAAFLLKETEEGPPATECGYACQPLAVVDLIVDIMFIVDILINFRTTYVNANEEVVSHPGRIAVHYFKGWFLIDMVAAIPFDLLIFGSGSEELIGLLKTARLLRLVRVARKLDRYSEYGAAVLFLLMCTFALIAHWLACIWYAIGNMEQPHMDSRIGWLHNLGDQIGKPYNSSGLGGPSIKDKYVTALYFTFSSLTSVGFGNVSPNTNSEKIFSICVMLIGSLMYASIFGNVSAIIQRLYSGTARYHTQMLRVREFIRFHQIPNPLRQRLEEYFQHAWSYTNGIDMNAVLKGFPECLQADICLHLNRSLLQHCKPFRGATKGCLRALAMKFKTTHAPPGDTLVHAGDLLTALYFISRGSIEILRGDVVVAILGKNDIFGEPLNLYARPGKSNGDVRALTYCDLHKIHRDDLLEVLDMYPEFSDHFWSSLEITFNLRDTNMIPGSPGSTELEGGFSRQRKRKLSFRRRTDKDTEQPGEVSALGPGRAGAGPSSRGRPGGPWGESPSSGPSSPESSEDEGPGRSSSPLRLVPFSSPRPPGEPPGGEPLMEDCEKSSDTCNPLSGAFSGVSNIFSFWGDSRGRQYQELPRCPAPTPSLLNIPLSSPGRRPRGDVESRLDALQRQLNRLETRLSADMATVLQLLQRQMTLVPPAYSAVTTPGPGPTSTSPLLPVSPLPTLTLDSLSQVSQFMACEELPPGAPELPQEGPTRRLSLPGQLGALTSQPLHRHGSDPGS

SMILES | hERG current change (%, negative = inhibition) at 1uM [%]
COc1ccc(-c2cnc3ncnn3c2N)cc1 | 11.7
COc1ccc(CNC(=O)c2ccc(CNc3c(NC4CCCCC4)c(=O)c3=O)cc2)cc1 | 12.5
CCCCCCn1c(CN2CCN(C(=O)c3ccco3)CC2)nc2c1c(=O)n(C)c(=O)n2C | -46.6
Cc1ccccc1OCC(=O)OC(C(=O)c1ccccc1)c1ccccc1 (stereo not shown) | 11
O=C1N2c3ccccc3CCc3cccc(c32)C1(O)C(F)(F)F (stereo not shown) | 5.26
CCOC(=O)C1CCN(C(=O)c2cccc(NC(=O)C(CC)CC)c2)CC1 | 6.96
OC(CNCCC(c1ccccc1)c1ccccc1)COc1ccccc1 (stereo not shown) | -18.7
C[N+]12CN3CN(CN(C3)C1)C2.[I-] | 16.3
Cn1c(CCNS(=O)(=O)c2ccc(F)cc2)nnc1SCc1cccnc1 | 15.4
c1ccc2cc(Sc3ncnc4c3oc3ccccc34)ccc2c1 | 16.8
CCC[N+](CC#Cc1ccccc1)(CCC)CC(=O)OC | 10.3
COc1nccnc1NS(=O)(=O)c1ccc(NC(=S)NC(=O)c2cccc(F)c2)cc1 | 12.7
Cc1ccc(NC(=O)/C(=C/c2cccc([N+](=O)[O-])c2)NC(=O)C2CCCCC2)c(C)c1 | -6.3
O=C(NCc1ccccc1F)c1ccc2c(c1)OCCO2 | 11.8
CCCC(=O)Nc1nnc(-c2ccc3c(c2)OCCO3)o1 | 5.57
COc1cccc(CN(C)C(=O)c2ccc(N3CCCC3)c([N+](=O)[O-])c2)c1 | 5.56
COc1cccc(C(=O)N2CCN(C3CCN(Cc4ccccc4)CC3)CC2)c1OC.O=C(O)C(=O)O | 4.11
Cc1nc2oc3c(NCC4CCCO4)ncnc3c2c2c1COC(C)(C)C2 (stereo not shown) | -0.787
COc1ccc(N2CCN(C(=O)c3ccccc3Br)CC2)c([N+](=O)[O-])c1 | -5.46
Cc1cccc(NC(=O)C2CC(=O)OC23CCCC3)c1 (stereo not shown) | 15
CC1N(C(=O)N(C)C)CCN1S(=O)(=O)c1ccccc1 (stereo not shown) | 18.2
O=C(Nc1ccc(Cl)cc1Cl)c1ccc2c(=O)n3c(nc2c1)CCC3 | 3.65

SMILES | hERG current change (%, negative = inhibition) at 1uM [%]
COc1ccc(CNC/C=C/c2ccccc2)cc1.Cl | -0.786
Cc1ccc2nc(NC(=O)CC3Oc4ccccc4NC3=O)sc2c1 (stereo not shown) | 9.25
C=CCn1c(SCc2nc3ccccc3c(=O)[nH]2)nc2ccccc2c1=O | 2.82
CC(C)CC(=O)NC(=S)Nc1ccc(CN2CCOCC2)cc1 | 7.01
N#Cc1cnn(-c2nc(SCc3ccccc3)nc3sc4c(c23)CCCC4)c1N | 9.25
O=c1ccc(/C=C/c2ccccc2)nn1Cc1ccc(F)cc1 | 4.97
C=CCN1C(=O)/C(=C2/Sc3ccccc3N2C)SC1=Nc1ccccc1C | 14.5
O=C(NCc1ccccn1)c1cc(S(=O)(=O)N2CCN(c3ccccc3)CC2)ccc1Cl | -8.41
CCOC(=O)C1CCN(c2c(NCCCN3CCCCC3)c(=O)c2=O)CC1 | 12.9
CC(=O)c1c(-c2ccc(Cl)cc2)c2ccccc2[nH]c1=O | 12.6
CCN(CC(=O)Nc1ccc2c(c1)OCCO2)C(=O)c1ccc(C(F)(F)F)cc1 | 13.9
O=C(COC(=O)c1ccc(S(=O)(=O)Nc2ccccc2)cc1)NC1CCCC1 | 17.7
Cc1ccccc1NC(=O)Nc1cccs1 | 13.4
COc1ccc(C(=O)NNC2=C(C(=O)C(F)(F)F)CCC2)cc1 | 14.7
COc1ccc(N(C(=O)c2ccc(C)cc2)S(=O)(=O)c2cccs2)cc1 | 16.3
O=C(COC(=O)c1ccccc1NCCO)Nc1cccc(S(=O)(=O)NC2=NCCCCC2)c1 | 4.76
COc1ccc(NC(=O)c2ccccn2)cc1 | 6.69
CSc1cccc(NS(=O)(=O)c2ccc3c(c2)oc(=O)n3C)c1 | 7.3
CCOC(=O)CC(=O)CSc1nc2c(c(C)c1C#N)CCC2 | 1.35
COC(=O)C1N[C@@H]([C@@H](NC(=O)COc2ccccc2)C(=O)NC2CC2)SC1(C)C (stereo partly shown) | 9.01
COc1ccc(N(CC(=O)Nc2ccc(Cc3ccncc3)cc2)S(=O)(=O)c2ccccc2)cc1 | 11.2
Cc1cccc(NC(=O)Cn2nnc(-c3cccs3)n2)c1C | 7.96

SMILES | hERG current change (%, negative = inhibition) at 1uM [%]
COc1cc(C)nc(OCCNC(=O)COc2ccc(Cl)cc2Cl)n1 | 6.51
Cc1ccc(C)c(NC(=S)N(Cc2ccc(Cl)cc2)Cc2ccc(C(=O)O)cc2)c1 | 14.9
CCOc1ccccc1-n1c(SCC(=O)N2CCOCC2)nnc1-c1ccccn1 | 6.84
CCOc1ccc(N2C(=O)CSC2c2ccncc2)cc1 (stereo not shown) | 17.5
CCOC(=O)N1CCN(C(=O)c2cn(C)c3ccc(S(=O)(=O)N(CC)CC)cc3c2=O)CC1 | 17.4
COc1ccc(OC)c2sc(NC(=O)c3ccc(Br)s3)nc12 | 16.2
COC(=O)C1=C(N)Oc2c(oc(CO)cc2=O)C1c1ccc(F)cc1 (stereo not shown) | 6.28
O=C(O)/C=C/c1ccc(S(=O)(=O)Nc2ccc(OCc3ccccc3)cc2)cc1 | 17.6
Cc1onc(-c2ccccc2)c1C(=O)N1CCN(Cc2ccc3c(c2)OCO3)CC1.Cl | 13.5
COc1ccc(OC)c(Nc2c3ccccc3nc3ccccc23)c1 | 5.25
O=C(CN1/C(=C(/O)c2ccccc2)C(=O)c2ccccc2S1(=O)=O)c1ccccc1 | 9.7
COc1cccc2cc3c(=O)n(-c4ccccc4)nc-3oc12 | 8.78
Cc1cccc(NC(=O)c2cc3ccccc3oc2=O)c1 | 13
COc1ccc(CC(=O)NNC(=O)c2ccco2)cc1OC | 12.4
COc1ccc(NC(=O)/C(C#N)=C/c2c(C)nn(-c3ccc(F)cc3)c2Cl)cc1Cl | 6.95
Cc1ccccc1C1NC(=O)Cc2ccccc21 (stereo not shown) | 13.3
CCc1cc(Cn2nc(-c3ccccc3)cc2C(=O)NCc2ccc(C)cc2)on1 | 8.29
CC1CN(c2cnn(C(C)C)c(=O)c2Cl)CC(C)O1 (stereo not shown) | 2
N#C/C(=C\c1c(N2CCOCC2)nc2ccccn2c1=O)C(=O)NC1CCS(=O)(=O)C1 (stereo not shown) | -1.57
COc1ccc2[nH]c(C)c(C(=O)CN3CCc4cc(OC)c(OC)cc4C3)c2c1 | -3.19
O=C(NCC1CCN(Cc2ccccc2F)CC1)Nc1ccccc1F | -3.45
Cl.O=S(=O)(c1cccc2cnccc12)N1CCNCC1 | 15.5

SMILES | hERG current change (%, negative = inhibition) at 1uM [%]
Cc1cc(N2CCCCCC2)nc2ccccc12.O=C(O)C(=O)O | -23.3
CCc1ccc(CCC(=O)Nc2nnc(C)s2)o1 | 2.72
O=C(CSCc1ccccc1F)NCc1ccc(F)cc1 | 9.67
CCOc1ccc(NC(=O)c2sc(NC(C)=O)c(C(=O)OC)c2C)cc1 | 18.2
CCCn1c(=O)c(Cc2ccccc2)c(O)c2ccccc21 | 0.875
Cc1cc(/C=C2/C(=N)N3C(=NC2=O)SN=C3S(C)(=O)=O)c(C)n1-c1ccccc1F | 13.5
Cc1cc(C)c2c(n1)sc1c(N3CCN(C)CC3)ncnc12 | 0.322
O=C(CS(=O)(=O)c1cn(Cc2ccccc2Cl)c2ccccc12)N1CCOCC1 | 8.16
CCOC(=O)N1CCN(C(=O)CN(c2ccccc2OC)S(=O)(=O)c2ccc(OC)cc2)CC1 | 3.6
Cc1ccnc(NS(=O)(=O)c2ccc(NC(=O)c3ccc(S(=O)(=O)N4CCOCC4)cc3)cc2)n1 | 10.8
COc1ccc([C@H]2CC(=O)C=C(c3ccccc3-c3ccccc3)C2)cc1 | 8.44
COCCCNCCCOc1ccc(C)cc1Br.O=C(O)C(=O)O | -3.31
Cc1cccc(NC(=O)c2c(O)c3ccccc3n(C)c2=O)c1 | 19.3
O=C1Nc2ccc(Br)cc2C12OCCO2 | 12.5
O=C(O)CCc1ccc(-c2cccs2)n1Cc1ccco1 | -11.3
COC(=O)C1=C(C(=O)c2ccccc2)C(c2ccc(OC)c(OC)c2)Nc2nnnn21 (stereo not shown) | 10.3
C/C(CC(=O)Nc1ccc(N(C)C)cc1)=N\NC(=O)c1ccncc1 | 9.61
Cc1csc(NC(=O)c2cc3c(s2)-c2ccccc2OC3)n1 | 7.79
CC(=NCc1cccnc1)c1c(O)n(-c2ccccc2)c(=O)[nH]c1=O | 17.9
C=CCNc1nnc(SC2CC(=O)N(c3ccc(OCCC)cc3)C2=O)s1 (stereo not shown) | 8.05
Cn1cc(S(=O)(=O)N2CCOCC2)cc1C(=O)Nc1cccc(Cl)c1 | 3.77
O=C(NCc1ccco1)c1nc2c(nnn2Cc2ccccc2Cl)c(=O)[nH]1 | 1.44
